Laboratory results from patent US20170306038A1, “COMPOSITIONS AND METHODS OF USE FOR AUGMENTED IMMUNE RESPONSE AND CANCER THERAPY” (priority 2014, published 2017).

Legend:
[1] = test system: human CD4+ Tcells; experiment: FACS binding to isolated human PBMCs; conditions: FACS of isolated PBMCs
Experimental: Plates were prepared with cells resuspended in 200 μL of cold PBS. […] Wash and resuspension in 100 μL of antibody cocktail (PerCP Cγ5.5 anti-human CD3 (BD #552852), Alexa Fluor 700 anti-human CD4 (BD #560836), V450 anti-human CD8 (BD #561426), PE-Cγ7 anti-human CD25 (BD #561405) and PE anti-human in FACS Buffer (Jackson Immuno #109-116-098)) followed and plates were then incubated for 30 minutes on ice protected from light and then spun in a bench top centrifuge at 3,200 RPM for 1 minute at 4° C. Cells were washed in FACS Buffer then resuspended in 100 μL of BD CytoFix (BD #554655) and plates were incubated for 15 minutes at room temperature protected from light then washed twice and resuspended in 100 μL of FACS Buffer. Plates were covered with foil (Beckman Coulter, #538619) and stored at 4° C. until ready to read. On the day of FACS read the plate was spun in a bench top centrifuge at 3,200 RPM for 1 minute and 50 μL of CML latex beads (Life Technologies #C37259), 4×10^5/mL in FACS Buffer, was added to each well. The plates were read on a BD Fortessa flow cytometer and data analyzed using FlowJo.

[2] = test system: Colon26 tumors; experiment: Colon26 tumor model in hGITR-hGITRL double knock-in mice; assay type: in vivo, mouse
Experimental: Co-stimulatory activity of MABs on T cells was also measured using an ELISpot method for detection of IFNg. Briefly, ELISPOT plates (Millipore MSIPS4510) were prepared by coating with 70% ethanol for 2 minutes followed by PBS wash and incubation overnight with 50 ug IFNg monoclonal antibody in PBS (Mabtech 3321-3). Purified CD8+ T cells were isolated from spleens of Vehicle or MAB7-treated mice 15-days post-dose. T cells were plated into the coated ELISPOT plates at 0.25×10̂6 cells per well in CTL media (CTL Test-medium (CTL CTLT-005), 1 mM Hepes (Mediatech MT25-060-C1), 2 mM L-glutamine (Mediatech MT25-005-C1), 1 mM sodium pyruvate (Mediatech MT25-000-C1), 100 uM MEM Non-essential amino acids (Mediatech MT25-025-C1), 66 uM 2-Mercaptoethanol (Gibco 21985-023), 100 U/mL Pten/Strep (Gibco 10378016). Colon26 cells were treated with 10% ConA sup (BD Biosciences 354115) at 37° C. for 48 hours to upregulate MHC Class II expression and washed with CTL media prior to addition to T-cells. Colon26 tumor cells (20,000/well) were added to CTLs and incubated at 37° C. for 24-48 hours. Plates were then washed with 0.05% Tween-20/PBS and 10 ug of biotinylated anti-IFNg Mab (Mabtech R4-6A2-biotin) was added to each well and incubated for 2 hours at 37° C. Plates were then washed with 0.05% Tween-20/PBS and Vectastain ABC solution (Vector Labs PK6100) was added to each well and incubated for 1 hour at room temperature. Cells were then washed with 0.05% Tween-20/PBS and AEC substrate, prepared according to manufacturer's protocol (Sigma A6926) was added to each well and incubated for 4 minutes at room temperature. Plates were then rinsed with tap water, dried and stored in the dark for 24 hours prior to reading.
Flow cytometry: For surface markers, cells were stained with anti-CD19 (BD Biosciences 562291), anti-CD8 (Biolegend 100725), anti-CD4 (eBioscience 25-0041), anti-CD69 (BD Biosciences 561238), anti-hGITR (Miltenyi Biotech 130-092-895) and anti-hIgG (Life Sciences A-10631) antibodies for 30 minutes at 4C. For intracellular staining, following incubation with cell surface antibodies, cells were washed, fixed and permeabliized with FOXP3 Fix/Perm buffer (Biolegend 421403) according to manufacture's protocol and incubated with anti-phospho-IKKa/b antibody (Cell Signaling 2697) or anti-FOXP3 antibody (eBioscience 50-4774-42) for 30 minutes at 4C. Cells were read on a BD LSRFortessa cytometer using BD FACSDiva software (BD Biosciences) and flow data was analyzed using FlowJo software (TreeStar Inc.).
In vivo tumor models. The Colon26 murine colon carcinoma cell line was obtained from the Division of Cancer Treatment and Diagnosis at the National Cancer Institute (vial: 0507238). Murine Colon26 carcinoma cells were cultured in RPMI 1640 medium (HyClone SH30027.02) supplemented with 10% FBS (Gibco 10099-141), 10 mM HEPES (Gibco 15630-080) and 1 mM sodium pyruvate (Gibco 11360-070). 8-10 week old female hGITR-hGITRL knock-in mice were injected subcutaneously with 0.5×10̂6 Colon26 cells in 100 uL of RPMI in the flank. Tumors were measured using digital calipers and tumor volume calculated using the equation (L×W^2)/2. When tumors reached an average size of 180 mm^3, mice were randomized and dosed with a single intraperitoneal injection of vehicle (PBS) or therapeutic antibody (15 mg/kg) in 200 uL PBS. Mice were sacrificed and tumors collected for analysis by flow cytometry 7 days after dosing with therapeutic antibodies. All animal experiments were performed in an AAALAC accredited facility using IACUC approved protocols. Statistical analysis was performed in Prism software using student's t-test with two-tailed 95% confidence interval or One-way ANOVA with Tukey correction.

[3] = 15-days post-dose, normalized to tumor size

B1: MAB7: MAB4 variant with glycation site KH changed to RH; heavy chain SEQ ID NO:100, light chain SEQ ID NO:66 (antibody)
heavy: EVQLVESGGGLVQSGGSLRLSCAASGFSLSSYGVDWVRQAPGKGLEWVGVIWGGGGTYYASSLMGRFTISRDNSKNTLYLQMNSLRAEDTAVYYCARHAYGHDGGFAMDYWGQGTLVTVSSASTKGPSVFPLAPSSKSTSGGTAALGCLVKDYFPEPVTVSWNSGALTSGVHTFPAVLQSSGLYSLSSVVTVPSSSLGTQTYICNVNHKPSNTKVDKRV[human IgG1 Fc not printed]
light: EIVMTQSPATLSVSPGERATLSCRASESVSSNVAWYQQRPGQAPRLLIYGASNRATGIPARFSGSGSGTDFTLTISRLEPEDFAVYYCGQSYSYPFTFGQGTKLEIKRTVAAPSVFIFPPSDEQLKSGTASVVCLLNNFYPREAKVQWKVDNALQSGNSQESVTEQDSKDSTYSLSSTLTLSKADYEKHKVYACEVTHQGLSSPVTKSFNRGEC
binding to human CD4+ Tcells [1]: binds | Tregs in tumor ([2]; 3-days post-dose): Tregs are reduced | activated CD8+ T cells in tumor site [2, 3]: increased activated CD8+ T cells | lymphocytes in tumor site [2, 3]: increased lymphocytes | growth of Colon26 tumors (tumor volume) ([2]; single dose 15 mg/kg intraperitoneal, versus vehicle): delayed growth of Colon26 tumors | tumor specific IFNg response of CD8+ T cells (ELISPOT) ([2]; splenic CD8+ T cells incubated with Colon26 cells ex-vivo, 15-days post-dose): increased tumor specific IFNg response | cell surface hGITR on Tregulatory and Thelper cells ([2]; whole blood and tumors, three days post treatment): decreased hGITR
